In patent publication CN116897165A (dated 2023):

B1: B781401 (bispecific antibody, human IgG1, kappa)
heavy: SDTGRPFVEMYSEIPEIIHMTEGRELVIPCRVTSPNITVTLKKFPLDTLIPDGKRIIWDSRKGFIISNATYKEIGLLTCEATVNGHLYKTNYLTHRQTNTIIDVVLSPSHGIELSVGEKLVLNCTARTELNVGIDFNWEYPSSKHQHKKLVNRDLKTQSGSEMKKFLSTLTIDGVTRSDQGLYTCAASSGLMTKKNSTFVRVHEKQVQLQESGPGLVRPSQTLSLTCTVSGYSITSDHAWSWVRQPPGRGLEWIGYISYSGITTYNPSLKSRVTMLRDTSKNQFSLRLSSVTAADTAVYYCARSLARTTAMDYWGQGSLVTVSS[letters of human IgG1 constant region not shown]
light: DIQMTQSPSSLSASVGDRVTITCRASQDISSYLNWYQQKPGKAPKLLIYYTSRLHSGVPSRFSGSGSGTDFTFTISSLQPEDIATYYCQQGNTLPYTFGQGTKVEIKRTVAAPSVFIFPPSDEQLKSGTASVVCLLNNFYPREAKVQWKVDNALQSGNSQESVTEQDSKDSTYSLSSTLTLSKADYEKHKVYACEVTHQGLSSPVTKSFNRGEC
notes: VEGFR-1-D2-VEGFR-2-D3 joined directly to the N-terminus of the tocilizumab heavy chain
B2: B781405 (bispecific antibody, human IgG1, kappa)
heavy: QVQLQESGPGLVRPSQTLSLTCTVSGYSITSDHAWSWVRQPPGRGLEWIGYISYSGITTYNPSLKSRVTMLRDTSKNQFSLRLSSVTAADTAVYYCARSLARTTAMDYWGQGSLVTVSS[letters of human IgG1 constant region not shown]
light: SDTGRPFVEMYSEIPEIIHMTEGRELVIPCRVTSPNITVTLKKFPLDTLIPDGKRIIWDSRKGFIISNATYKEIGLLTCEATVNGHLYKTNYLTHRQTNTIIDVVLSPSHGIELSVGEKLVLNCTARTELNVGIDFNWEYPSSKHQHKKLVNRDLKTQSGSEMKKFLSTLTIDGVTRSDQGLYTCAASSGLMTKKNSTFVRVHEKDIQMTQSPSSLSASVGDRVTITCRASQDISSYLNWYQQKPGKAPKLLIYYTSRLHSGVPSRFSGSGSGTDFTFTISSLQPEDIATYYCQQGNTLPYTFGQGTKVEIKRTVAAPSVFIFPPSDEQLKSGTASVVCLLNNFYPREAKVQWKVDNALQSGNSQESVTEQDSKDSTYSLSSTLTLSKADYEKHKVYACEVTHQGLSSPVTKSFNRGEC
notes: VEGFR-1-D2-VEGFR-2-D3 joined directly to the N-terminus of the tocilizumab light chain
B3: B781406 (bispecific antibody, human IgG1, kappa)
heavy: B2 heavy
light: SDTGRPFVEMYSEIPEIIHMTEGRELVIPCRVTSPNITVTLKKFPLDTLIPDGKRIIWDSRKGFIISNATYKEIGLLTCEATVNGHLYKTNYLTHRQTNTIIDVVLSPSHGIELSVGEKLVLNCTARTELNVGIDFNWEYPSSKHQHKKLVNRDLKTQSGSEMKKFLSTLTIDGVTRSDQGLYTCAASSGLMTKKNSTFVRVHEKGGSGGGSGGGGSGGGGGSGGGGDIQMTQSPSSLSASVGDRVTITCRASQDISSYLNWYQQKPGKAPKLLIYYTSRLHSGVPSRFSGSGSGTDFTFTISSLQPEDIATYYCQQGNTLPYTFGQGTKVEIKRTVAAPSVFIFPPSDEQLKSGTASVVCLLNNFYPREAKVQWKVDNALQSGNSQESVTEQDSKDSTYSLSSTLTLSKADYEKHKVYACEVTHQGLSSPVTKSFNRGEC
notes: VEGFR-1-D2-VEGFR-2-D3 joined by a flexible linker to the N-terminus of the tocilizumab light chain

molecular target: T1, 重组人VEGF-A 165 (human, UniProt P15692-4 27-191); experiment: ELISA, plate coated with recombinant human VEGF-A165, anti-human IgG1-Fc-HRP, OD450
T1 construct: Coated on ELISA plates; also used in solution in the VEGFR2 reporter assay; also called recombinant human VEGF-A165
T1 sequence (looked up): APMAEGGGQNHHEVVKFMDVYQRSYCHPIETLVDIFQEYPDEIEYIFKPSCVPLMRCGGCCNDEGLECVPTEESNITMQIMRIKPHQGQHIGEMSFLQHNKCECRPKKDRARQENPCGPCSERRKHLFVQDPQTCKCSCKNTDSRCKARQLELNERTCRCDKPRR

Binding result, binds:
B1
B2
B3
